# Results from the supplement of paper PMC12217912.
# The other results are listed elsewhere or left out. The full chains were built here from the parent and the listed change. Values near 0.05 are background.
# B1: TEV protease; numbered along this chain (parent)
# chain: MGESLFKGPRDYNPISSSICHLTNESDGHTTSLYGIGFGPFIITNKHLFRRNNGTLVVQSLHGVFKVKDTTTLQQHLVDGRDMIIIRMPKDFPPFPQKLKFREPQREERICLVTTNFQTKSMSSMVSDTSCTFPSGDGIFWKHWIQTKDGQCGSPLVSTRDGFIVGIHSASNFTNTNNYFTSVPKNFMELLTNQEAQQWVSGWRLNADSVLWGGHKVFMVKPEEPFQPVKEATQL
# Variants of: B1
# Assay: raw area under fraction-flipped curve 0-4 h after induction (AUC4h, not background-subtracted), DNA-recorder readout of cleavage of the substrate (dimensionless); higher = more cleavage of the substrate by the protease variant
# Conditions: temperature: 34 °C; time window: 0-4 h after rhamnose induction
# Procedure: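 In vivo DNA recorder in E. coli TOP10(DE3) ΔrhaA at 34 °C. Each TEVp single-site mutant (parent TEVp 0) is paired with a single-site variant of the 7-mer TEVs (canonical ENLYFQ|S). The substrate sits between flexible linkers in a Bxb1-sfGFP-TEVs-SsrA fusion, so cleavage stabilises Bxb1 and speeds flipping of a recombination array, read by NGS. The value is the raw area under the fraction-flipped curve over 0-4 h after rhamnose induction (AUC4h), with ≥20 reads per time point. It is not background-subtracted; inactive controls average about 0.047.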
# 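Further: Bxb1 expression induced with 0.2% (w/v) L-rhamnose at OD600 near 0.5, cultures sampled hourly, flipped fraction per protease–substrate barcode pair counted by paired-end Illumina sequencing.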
Variant,area with substrate ECLYFQS,area with substrate EDLYFQS,area with substrate EELYFQS,area with substrate EGLYFQS,area with substrate EHLYFQS,area with substrate EKLYFQS,area with substrate ELLYFQS,area with substrate EMLYFQS,area with substrate ERLYFQS,area with substrate ESLYFQS
MGESLFKGPRDYNPISSSICHLTNESDGHTTSLYGIGFGPFIITNKHLFRRNNGTLVVQSLHGVFKVKDTTTLQQHLDDGRDMIIIRMPKDFPPFPQKLKFREPQREERICLVTTNFQTKSMSSMVSDTSCTFPSGDGIFWKHWIQTKDGQCGSPLVSTRDGFIVGIHSASNFTNTNNYFTSVPKNFMELLTNQEAQQWVSGWRLNADSVLWGGHKVFMVKPEEPFQPVKEATQL [V78D],0.082,0.0327,0.104,0.0682,0.0571,0.0669,0.0588,0.0718,0.0628,0.0748
MGESLFKGPRDYNPISSSICHLTNESDGHTTSLYGIGFGPFIITNKHLFRRNNGTLVVQSLHGVFKVKDTTTLQQHLEDGRDMIIIRMPKDFPPFPQKLKFREPQREERICLVTTNFQTKSMSSMVSDTSCTFPSGDGIFWKHWIQTKDGQCGSPLVSTRDGFIVGIHSASNFTNTNNYFTSVPKNFMELLTNQEAQQWVSGWRLNADSVLWGGHKVFMVKPEEPFQPVKEATQL [V78E],0.0714,0.0858,0.0828,0.0611,0.0631,0.0744,0.0703,0.0717,0.0617,0.0746
MGESLFKGPRDYNPISSSICHLTNESDGHTTSLYGIGFGPFIITNKHLFRRNNGTLVVQSLHGVFKVKDTTTLQQHLIDGRDMIIIRMPKDFPPFPQKLKFREPQREERICLVTTNFQTKSMSSMVSDTSCTFPSGDGIFWKHWIQTKDGQCGSPLVSTRDGFIVGIHSASNFTNTNNYFTSVPKNFMELLTNQEAQQWVSGWRLNADSVLWGGHKVFMVKPEEPFQPVKEATQL [V78I],0.1,0.142,0.126,–,–,0.0969,–,0.121,–,–
MGESLFKGPRDYNPISSSICHLTNESDGHTTSLYGIGFGPFIITNKHLFRRNNGTLVVQSLHGVFKVKDTTTLQQHLNDGRDMIIIRMPKDFPPFPQKLKFREPQREERICLVTTNFQTKSMSSMVSDTSCTFPSGDGIFWKHWIQTKDGQCGSPLVSTRDGFIVGIHSASNFTNTNNYFTSVPKNFMELLTNQEAQQWVSGWRLNADSVLWGGHKVFMVKPEEPFQPVKEATQL [V78N],0.0755,–,0.0809,0.0684,0.0701,0.0603,0.0547,0.0631,–,0.0733
MGESLFKGPRDYNPISSSICHLTNESDGHTTSLYGIGFGPFIITNKHLFRRNNGTLVVQSLHGVFKVKDTTTLQQHLVQGRDMIIIRMPKDFPPFPQKLKFREPQREERICLVTTNFQTKSMSSMVSDTSCTFPSGDGIFWKHWIQTKDGQCGSPLVSTRDGFIVGIHSASNFTNTNNYFTSVPKNFMELLTNQEAQQWVSGWRLNADSVLWGGHKVFMVKPEEPFQPVKEATQL [D79Q],0.0715,–,–,–,–,–,–,0.0639,–,–
MGESLFKGPRDYNPISSSICHLTNESDGHTTSLYGIGFGPFIITNKHLFRRNNGTLVVQSLHGVFKVKDTTTLQQHLVDGVDMIIIRMPKDFPPFPQKLKFREPQREERICLVTTNFQTKSMSSMVSDTSCTFPSGDGIFWKHWIQTKDGQCGSPLVSTRDGFIVGIHSASNFTNTNNYFTSVPKNFMELLTNQEAQQWVSGWRLNADSVLWGGHKVFMVKPEEPFQPVKEATQL [R81V],0.0857,–,–,0.079,–,–,–,–,0.0853,0.103
MGESLFKGPRDYNPISSSICHLTNESDGHTTSLYGIGFGPFIITNKHLFRRNNGTLVVQSLHGVFKVKDTTTLQQHLVDGRMMIIIRMPKDFPPFPQKLKFREPQREERICLVTTNFQTKSMSSMVSDTSCTFPSGDGIFWKHWIQTKDGQCGSPLVSTRDGFIVGIHSASNFTNTNNYFTSVPKNFMELLTNQEAQQWVSGWRLNADSVLWGGHKVFMVKPEEPFQPVKEATQL [D82M],0.059,0.0405,–,0.0608,–,–,–,0.0446,0.0499,0.0544
MGESLFKGPRDYNPISSSICHLTNESDGHTTSLYGIGFGPFIITNKHLFRRNNGTLVVQSLHGVFKVKDTTTLQQHLVDGRVMIIIRMPKDFPPFPQKLKFREPQREERICLVTTNFQTKSMSSMVSDTSCTFPSGDGIFWKHWIQTKDGQCGSPLVSTRDGFIVGIHSASNFTNTNNYFTSVPKNFMELLTNQEAQQWVSGWRLNADSVLWGGHKVFMVKPEEPFQPVKEATQL [D82V],0.0417,–,0.0471,–,–,0.0489,–,0.0746,0.0576,0.0497
MGESLFKGPRDYNPISSSICHLTNESDGHTTSLYGIGFGPFIITNKHLFRRNNGTLVVQSLHGVFKVKDTTTLQQHLVDGRDRIIIRMPKDFPPFPQKLKFREPQREERICLVTTNFQTKSMSSMVSDTSCTFPSGDGIFWKHWIQTKDGQCGSPLVSTRDGFIVGIHSASNFTNTNNYFTSVPKNFMELLTNQEAQQWVSGWRLNADSVLWGGHKVFMVKPEEPFQPVKEATQL [M83R],0.0477,–,0.0502,0.0619,–,–,0.0439,0.0579,–,–

# Same assay, conditions: temperature: 34 °C; time window: 0-4 h after rhamnose induction
Variant,area with substrate EVLYFQS,area with substrate EWLYFQS,area with substrate EILYFQS,area with substrate EPLYFQS,area with substrate EQLYFQS,area with substrate EYLYFQS,area with substrate ETLYFQS
MGESLFKGPRDYNPISSSICHLTNESDGHTTSLYGIGFGPFIITNKHLFRRNNGTLVVQSLHGVFKVKDTTTLQQHLDDGRDMIIIRMPKDFPPFPQKLKFREPQREERICLVTTNFQTKSMSSMVSDTSCTFPSGDGIFWKHWIQTKDGQCGSPLVSTRDGFIVGIHSASNFTNTNNYFTSVPKNFMELLTNQEAQQWVSGWRLNADSVLWGGHKVFMVKPEEPFQPVKEATQL [V78D],0.0591,0.0471,–,–,–,–,–
MGESLFKGPRDYNPISSSICHLTNESDGHTTSLYGIGFGPFIITNKHLFRRNNGTLVVQSLHGVFKVKDTTTLQQHLEDGRDMIIIRMPKDFPPFPQKLKFREPQREERICLVTTNFQTKSMSSMVSDTSCTFPSGDGIFWKHWIQTKDGQCGSPLVSTRDGFIVGIHSASNFTNTNNYFTSVPKNFMELLTNQEAQQWVSGWRLNADSVLWGGHKVFMVKPEEPFQPVKEATQL [V78E],0.0863,0.073,0.0667,0.0801,0.0887,0.08,–
MGESLFKGPRDYNPISSSICHLTNESDGHTTSLYGIGFGPFIITNKHLFRRNNGTLVVQSLHGVFKVKDTTTLQQHLIDGRDMIIIRMPKDFPPFPQKLKFREPQREERICLVTTNFQTKSMSSMVSDTSCTFPSGDGIFWKHWIQTKDGQCGSPLVSTRDGFIVGIHSASNFTNTNNYFTSVPKNFMELLTNQEAQQWVSGWRLNADSVLWGGHKVFMVKPEEPFQPVKEATQL [V78I],–,–,–,0.111,0.0768,0.134,–
MGESLFKGPRDYNPISSSICHLTNESDGHTTSLYGIGFGPFIITNKHLFRRNNGTLVVQSLHGVFKVKDTTTLQQHLNDGRDMIIIRMPKDFPPFPQKLKFREPQREERICLVTTNFQTKSMSSMVSDTSCTFPSGDGIFWKHWIQTKDGQCGSPLVSTRDGFIVGIHSASNFTNTNNYFTSVPKNFMELLTNQEAQQWVSGWRLNADSVLWGGHKVFMVKPEEPFQPVKEATQL [V78N],–,0.0655,0.072,–,0.0617,0.0784,0.0628
MGESLFKGPRDYNPISSSICHLTNESDGHTTSLYGIGFGPFIITNKHLFRRNNGTLVVQSLHGVFKVKDTTTLQQHLVQGRDMIIIRMPKDFPPFPQKLKFREPQREERICLVTTNFQTKSMSSMVSDTSCTFPSGDGIFWKHWIQTKDGQCGSPLVSTRDGFIVGIHSASNFTNTNNYFTSVPKNFMELLTNQEAQQWVSGWRLNADSVLWGGHKVFMVKPEEPFQPVKEATQL [D79Q],0.115,–,–,–,–,–,–
MGESLFKGPRDYNPISSSICHLTNESDGHTTSLYGIGFGPFIITNKHLFRRNNGTLVVQSLHGVFKVKDTTTLQQHLVDGVDMIIIRMPKDFPPFPQKLKFREPQREERICLVTTNFQTKSMSSMVSDTSCTFPSGDGIFWKHWIQTKDGQCGSPLVSTRDGFIVGIHSASNFTNTNNYFTSVPKNFMELLTNQEAQQWVSGWRLNADSVLWGGHKVFMVKPEEPFQPVKEATQL [R81V],0.105,–,0.0742,–,–,–,0.144
MGESLFKGPRDYNPISSSICHLTNESDGHTTSLYGIGFGPFIITNKHLFRRNNGTLVVQSLHGVFKVKDTTTLQQHLVDGRMMIIIRMPKDFPPFPQKLKFREPQREERICLVTTNFQTKSMSSMVSDTSCTFPSGDGIFWKHWIQTKDGQCGSPLVSTRDGFIVGIHSASNFTNTNNYFTSVPKNFMELLTNQEAQQWVSGWRLNADSVLWGGHKVFMVKPEEPFQPVKEATQL [D82M],–,–,0.0497,–,0.0456,–,–
MGESLFKGPRDYNPISSSICHLTNESDGHTTSLYGIGFGPFIITNKHLFRRNNGTLVVQSLHGVFKVKDTTTLQQHLVDGRVMIIIRMPKDFPPFPQKLKFREPQREERICLVTTNFQTKSMSSMVSDTSCTFPSGDGIFWKHWIQTKDGQCGSPLVSTRDGFIVGIHSASNFTNTNNYFTSVPKNFMELLTNQEAQQWVSGWRLNADSVLWGGHKVFMVKPEEPFQPVKEATQL [D82V],–,–,–,0.0458,–,0.0485,–
MGESLFKGPRDYNPISSSICHLTNESDGHTTSLYGIGFGPFIITNKHLFRRNNGTLVVQSLHGVFKVKDTTTLQQHLVDGRDRIIIRMPKDFPPFPQKLKFREPQREERICLVTTNFQTKSMSSMVSDTSCTFPSGDGIFWKHWIQTKDGQCGSPLVSTRDGFIVGIHSASNFTNTNNYFTSVPKNFMELLTNQEAQQWVSGWRLNADSVLWGGHKVFMVKPEEPFQPVKEATQL [M83R],–,–,–,–,–,–,0.0563
